Measurements: PubChem BioAssay (NCATS)
Inconclusive results, whose numbers are uncertain, are shown with a selection of clear calls. Where the call is inconclusive, the potency comes from a doubtful curve fit. Active and inactive are the calls of the source. Calls follow the shape of the dose curve; as a rule, active = well fitted inhibition curve with a large enough effect; inconclusive = small, poorly fitted or top-dose-only effect; inactive = flat fitted curve, though single readings scatter.

The molecules below were run against Flap endonuclease 1 (Homo sapiens) (UniProt P39748) (assay: qHTS Assay for the Inhibitors of FEN1: Confirmatory Assay for Cherry-picked Compounds (AID 720498; also: nearly all actives have a fitted effect of over 60% in size)). Conditions: FEN1 flap cleavage, TAMRA/BHQ2 fluorogenic DNA substrate.
Sequence of UniProt P39748 (P39748 whole entry, looked up, the tested form may be a part): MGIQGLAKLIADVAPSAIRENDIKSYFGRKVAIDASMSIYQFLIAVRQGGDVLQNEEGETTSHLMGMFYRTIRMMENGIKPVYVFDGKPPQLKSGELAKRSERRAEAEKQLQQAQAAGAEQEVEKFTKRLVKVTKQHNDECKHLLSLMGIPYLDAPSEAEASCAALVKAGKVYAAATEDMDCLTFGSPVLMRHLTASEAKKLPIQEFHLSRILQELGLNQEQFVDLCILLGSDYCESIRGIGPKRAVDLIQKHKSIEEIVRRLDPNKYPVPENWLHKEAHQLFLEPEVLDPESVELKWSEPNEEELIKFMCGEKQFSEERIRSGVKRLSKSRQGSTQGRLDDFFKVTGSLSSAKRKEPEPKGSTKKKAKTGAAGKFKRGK
Excerpt: The major human flap endonuclease FEN1 is an efficient structure-specific enzyme that recognizes and cleaves a 5'-unannealed DNA flap. It belongs to the RAD2 family nucleases, which are involved in DNA metabolism and are highly conserved in prokaryotes and eukaryotes. FEN1 is a key enzyme in DNA replication, repair and maintenance of genomic stability. 5'-flap removal by FEN1 is critical for Okazaki fragment processing during lagging strand DNA synthesis, long-patch base excision repair (LP BER), and regulating or facilitating recombination events. […] Cells from fen1-/- blastocysts show increased apoptotic cell death after ionizing radiation treatment, and chicken cells lacking the fen1 gene are hypersensitive to DNA alkylating agents, e.g. methylmethane sulfonate (MMS) and N-methyl-N'-nitro-N-nitrosoguanidine (MNNG), as well as hydrogen peroxide. […] Elevation of FEN1 in hormone refractory human prostate cancer cells also correlates with resistant to various anticancer agents including ionizing radiation, doxorubicin, paclitaxel and vinblastine. […] This assay is used to confirm the activity of selected compounds against the human Fen1. Inhibition is the desired outcome for this screen. NIH Chemical Genomics Center [NCGC] NIH Molecular Libraries Probe Centers Network [MLPCN] MLPCN Grant: MH092154 Assay Submitter (PI): David Wilson, National Institute of Aging
Three uL of reagents (buffer in column 3 and 4 as negative control and 10 nM FEN1 in columns 1, 2, and 5-48) were dispensed into 1,536-well black solid-bottomed plate. Compounds (23 nL) were transferred via Kalypsys pin tool equipped with 1536-pin array (10 nL slotted pins, V&P Scientific, San Diego, CA). The plates were then incubated for 15 min at room temperature, and 1 uL substrate (50 nM final concentration) were added to start the reaction read twice at 0 min read and 15 min on ViewLux reader equipped with 525 nm excitation and 598 nm emission filters. Throughout the screen, reagent bottle and all liquid lines were chilled and made light-tight to minimize reagent degradation. FEN1 Substrate. All oligodeoxynucleotides were purchased from Biosearch Technologies, Inc., (Novato, CA). Double-stranded DNA substrate containing double flap strands for fluorogenic assay was prepared from three oligodeoxynucleotides: quencher (5'-TCACCCTCGTACGACTCATCCAAAAAAGC - BHQ2), flap (5'-Tamra-GC AAAAAATTTATTCATCAACTGACATCTCCTAC) and template (5'-GT AGGAGATGTCAGTTGATGAATTGAGTCGTACGAGGGTGA-3') strand by annealing. The 5' end of the downstream flap strand was labeled with 6-carboxytetramethyl rhodamine (6-TAMRA) as the fluorophore donor, whereas the 3' end of the quencher flap strand was labeled with a Black Hole Quencher-2 (BHQ-2) as the matching quencher.
Potency is read from the fitted curve at half-maximal effect; tags tell the direction and shape of the fitted curve.

Row | SMILES | Potency
1 | O=C1C(=Cc2ccco2)CCC1=Cc1ccco1 | active: 16.9 µM
2 | Nc1ccc2c(c1Cl)C(=O)c1ccc(N)c(Cl)c1C2=O | inconclusive: 67.5 µM [inhibitor, partial curve]
3 | O=C(Nc1ccc2nc(-c3ccc4nc[nH]c4c3)[nH]c2c1)c1cccs1 | inconclusive: 67.5 µM [inhibitor, partial curve]
4 | O=C(O)c1ccc(-n2cccc2/C=N\NC(=O)c2cc3cc(Br)ccc3o2)cc1 | inconclusive: 75.7 µM [inhibitor, partial curve]
5 | Oc1ccc(/C=N/N=C(c2ccccc2)c2ccccc2)c(O)c1O | active: 47.8 µM
6 | O=C(O)c1ccc(S(=O)(=O)/N=C2\C=C(Nc3ccccc3F)C(=O)c3ccccc32)cc1 | inconclusive: 75.7 µM [inhibitor, partial curve]
7 | COc1cccc(-c2nc(NCCN3CCOCC3)c3ccccc3n2)c1O | inconclusive: 42.6 µM [inhibitor, partial curve]
8 | CCN(c1ccccc1)S(=O)(=O)c1cc(C(=O)O)ccc1C | inconclusive: 84.9 µM [inhibitor, single point]
9 | COCCN=c1scc(-c2ccco2)n1/N=C/c1ccc(O)c(O)c1O | inconclusive: 37.9 µM [inhibitor, partial curve]
10 | Cc1cc(C)nc(NC(=O)CSc2nn(-c3ccccc3)c(=S)s2)n1 | inconclusive: 67.5 µM [inhibitor, partial curve]
11 | CNc1ccc2c3c(cccc13)C(=O)N(C)C2=O | inconclusive: 47.8 µM [inhibitor, partial curve]
12 | C/C(C/C(C)=C1/SC(=S)NC1=O)=C1\SC(=S)NC1=O | active: 19 µM
13 | O=c1c(=O)n(O)c2ccccc2n1O | active: 1.35 µM
14 | CN1CCc2c(sc(/N=C/c3c[nH]c4ccccc34)c2C#N)C1 | inconclusive: 53.6 µM [inhibitor, partial curve]
15 | COc1cc(/C=C2\SC(=S)N(NS(=O)(=O)c3ccc(C)cc3)C2=O)ccc1O | active: 67.5 µM
16 | O=C(/C=C/c1ccco1)NC(=S)Nc1cccc(-c2nc3ccccc3o2)c1 | inconclusive: 84.9 µM [inhibitor, single point]
17 | COc1ccc(C(=O)c2cn(CC(=O)Nc3cc(OC)cc(OC)c3)c3ccc(OC)cc3c2=O)cc1 | inconclusive: 67.5 µM [inhibitor, partial curve]
18 | Cc1cc(NC(=O)Cc2cccs2)no1 | inconclusive: 75.7 µM [inhibitor, partial curve]
19 | O=C1CCCC(O)=C1N=Nc1ccc(C(=O)O)cc1 | inconclusive: 75.7 µM [inhibitor, partial curve]
20 | NS(=O)(=O)c1ccc(N/N=C/c2ccc(O)c(O)c2O)c([N+](=O)[O-])c1 | active: 15.1 µM
21 | COc1ccc2noc3c2c1C(=O)c1ccccc1-3 | inconclusive: 30.1 µM [inhibitor, partial curve]
22 | COc1ccccc1/C=c1\sc2nc(-c3ccco3)nn2c1=O | inconclusive: 75.7 µM [inhibitor, partial curve]
23 | O=C(O)c1ccc2c(c1)C(=O)/C(=C\c1ccco1)C2=O | active: 26.9 µM
24 | NN1C(=O)/C(=C2/Sc3ccccc3N2CCCS(=O)(=O)O)SC1=S | inconclusive: 84.9 µM [inhibitor, partial curve]
25 | N#C/C(=C\c1ccc(OCc2ccc(F)cc2)cc1)C(=O)Nc1cccc(C(=O)O)c1 | inconclusive: 75.7 µM [inhibitor, partial curve]
26 | O=C1c2cccc3c(Cl)ccc(c23)C(=O)N1O | active: 1.07 µM
27 | CCN(CC)CCN1C(=O)c2cccc3cc(N)cc(c23)C1=O | inconclusive: 37.9 µM [inhibitor, partial curve]
28 | CCOc1ccc(N=Cc2c(C)[nH]n(-c3nc4ccccc4[nH]3)c2=O)cc1 | inconclusive: 53.6 µM [inhibitor, partial curve]
29 | CCN(CC)c1ccc(C=C2SC(=S)NC2=O)cc1 | inconclusive: 67.5 µM [inhibitor, partial curve]
30 | N=C1/C(=C\c2coc3ccc(O)cc3c2=O)C(=O)N=C2SC=CN12 | inconclusive: 60.1 µM [inhibitor, partial curve]
